# Experimental data: PubChem BioAssay AID1347165 (National Center for Advancing Translational Sciences (NCATS), 2019)
# About 5,700 (2.6%) of roughly 220,000 compounds were called active. The shares of active, inactive and inconclusive entries below differ from those in the screen. Calls follow the shape of the dose curve; as a rule, active = well fitted inhibition curve with a large enough effect; inconclusive = small, poorly fitted or top-dose-only effect; inactive = no such curve, though single readings can be large or run the other way. Where the call is inconclusive, the potency comes from a doubtful curve fit.
# Target: Lysine-specific demethylase 5B (Homo sapiens) (UniProt Q9UGL1)
# Assay: Primary screen for KDM5B Histone Demethylases FDH-coupled qHTS; also: nearly all actives have a fitted effect of over 70% in size; as to activity change, negative = inhibition: 0% is about no effect
# Conditions: FDH-coupled NADH fluorescence (FDH is formaldehyde dehydrogenase); activity change, negative = inhibition: at 57.7 µM (top of the series) unless noted
# Procedure, shortened: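 Compound dilutions met 200 nM (final) KDM5BΔAP for 10 min at room temperature before substrate addition. The substrate mix held 12.5 µM H3K4me3 with cofactors 25 µM α-ketoglutarate and 50 µM Fe²⁺. NADH signal gain over 30 min defined activity.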
# Potency is read from the fitted curve at half-maximal effect; tags tell the direction and shape of the fitted curve.
# UniProt Q9UGL1, sequence (Q9UGL1 whole entry, looked up): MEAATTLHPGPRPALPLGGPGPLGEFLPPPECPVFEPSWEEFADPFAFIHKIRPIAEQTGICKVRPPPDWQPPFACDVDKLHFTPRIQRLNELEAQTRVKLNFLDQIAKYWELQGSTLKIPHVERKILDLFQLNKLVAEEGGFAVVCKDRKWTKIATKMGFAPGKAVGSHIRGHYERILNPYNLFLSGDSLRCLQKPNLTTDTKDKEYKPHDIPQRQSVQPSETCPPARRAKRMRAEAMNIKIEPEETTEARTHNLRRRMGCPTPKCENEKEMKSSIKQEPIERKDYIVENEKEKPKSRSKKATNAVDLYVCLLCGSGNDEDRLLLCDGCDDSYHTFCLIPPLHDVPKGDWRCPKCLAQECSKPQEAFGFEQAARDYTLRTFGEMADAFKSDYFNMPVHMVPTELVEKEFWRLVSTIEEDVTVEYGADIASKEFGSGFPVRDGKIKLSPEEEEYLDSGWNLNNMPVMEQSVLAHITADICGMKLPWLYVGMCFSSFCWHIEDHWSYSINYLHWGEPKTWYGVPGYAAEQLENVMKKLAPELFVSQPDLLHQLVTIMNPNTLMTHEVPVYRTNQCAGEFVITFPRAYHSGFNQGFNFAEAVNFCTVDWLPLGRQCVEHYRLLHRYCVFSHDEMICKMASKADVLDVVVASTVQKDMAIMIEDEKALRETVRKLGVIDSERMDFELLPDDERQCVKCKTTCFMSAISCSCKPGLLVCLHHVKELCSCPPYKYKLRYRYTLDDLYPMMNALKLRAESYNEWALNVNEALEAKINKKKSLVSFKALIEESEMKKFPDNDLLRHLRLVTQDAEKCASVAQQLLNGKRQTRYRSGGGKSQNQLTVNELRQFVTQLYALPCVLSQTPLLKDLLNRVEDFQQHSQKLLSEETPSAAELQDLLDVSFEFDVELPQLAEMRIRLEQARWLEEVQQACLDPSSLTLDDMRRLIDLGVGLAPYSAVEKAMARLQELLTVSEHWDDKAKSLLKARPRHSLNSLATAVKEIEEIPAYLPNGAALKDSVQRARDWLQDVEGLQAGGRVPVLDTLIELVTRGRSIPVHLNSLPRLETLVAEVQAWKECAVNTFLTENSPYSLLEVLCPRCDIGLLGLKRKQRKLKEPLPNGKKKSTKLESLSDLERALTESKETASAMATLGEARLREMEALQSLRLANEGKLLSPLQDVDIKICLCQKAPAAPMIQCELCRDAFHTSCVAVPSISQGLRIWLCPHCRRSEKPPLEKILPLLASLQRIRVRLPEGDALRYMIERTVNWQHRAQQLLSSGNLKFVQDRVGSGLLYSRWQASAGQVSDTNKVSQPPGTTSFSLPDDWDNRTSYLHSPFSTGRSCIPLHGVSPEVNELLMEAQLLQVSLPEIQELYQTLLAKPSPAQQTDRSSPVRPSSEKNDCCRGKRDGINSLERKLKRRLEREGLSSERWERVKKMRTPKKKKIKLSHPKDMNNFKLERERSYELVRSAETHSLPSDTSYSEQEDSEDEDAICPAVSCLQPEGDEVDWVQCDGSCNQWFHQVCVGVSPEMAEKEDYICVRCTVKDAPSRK
SMILES,"activity change, negative = inhibition",Potency
O=C(c1ccc2[nH]ccc2c1)N1CCN(Cc2ccccc2)CC1,inactive: 2.34%,–
CCOc1ccccc1NC(=O)c1sc2nc3c(cc2c1N)CN(Cc1ccccc1)CC3,inconclusive: -30.4% [inhibitor],–
COc1ccccc1NC(=O)c1c(C)oc2c1CN(Cc1ccc(F)cc1)CC2,–,"inconclusive: 22.4 µM [inhibitor, single point]"
CCn1ncc(C(=O)N[C@@H]2CN(c3ncccn3)C[C@H]2CO)c1C,–,"inconclusive: 22.4 µM [inhibitor, single point]"
COc1ccc(C(=O)Sc2ccc(C)cc2)cc1,inactive: 18.7%,–
COc1ccccc1-c1[nH]nc2ncc(-c3ccccc3C)nc12,–,active: 31.6 µM
COc1cccc(C(=O)CN2CCN(S(=O)(=O)c3ccc(Cl)cc3)CC2)c1,–,"inconclusive: 17.8 µM [inhibitor, partial curve, poor fit]"
O=C(Cn1ncc2c1-c1ccccc1OC2)N1CCN(c2cccc(Cl)c2)CC1,inactive: 13.4%,–
COc1cccc(Cc2nc3ccccc3nc2SCC(=O)N2CCCCC2C)c1 (stereo unspecified),–,"inconclusive: 31.6 µM [inhibitor, single point]"
CCn1c(C(=O)NC2CCN(CC(=O)NC3CC3)CC2)cc2ccccc21,inactive: -17%,–
O=S(=O)(Nc1cccn2ncnc12)c1ccc(C2CCCCC2)cc1,–,"inconclusive: 14.1 µM [inhibitor, partial curve]"
CCc1nnc(NC(=O)c2nc(S(C)(=O)=O)ncc2Cl)s1,–,"inconclusive: 25.1 µM [inhibitor, partial curve, poor fit]"
CCN(CC)c1nc2ccccc2nc1C(=O)Nc1cccc(OC)c1,inactive: -4.81%,–
Cc1ccc(CN2CC[C@H](c3nnc(-c4ccco4)o3)C2)o1,inactive: -21.1% [at 86.2 µM],–
c1cncc(-c2ccnc(N3CCCOC(Cn4cccn4)C3)n2)c1 (stereo unspecified),–,active: 25.1 µM
CCCCOc1ccc(C(=O)C(CCC(CNC(C)(C)C)C(=O)c2ccc(OCCCC)cc2)CNC(C)(C)C)cc1 (stereo unspecified),–,"inconclusive: 31.6 µM [inhibitor, single point]"
Cc1noc2ccc(-c3ccccc3OCc3ccccc3)nc12,–,"inconclusive: 39.8 µM [inhibitor, partial curve, poor fit]"
CCOC(=O)C1=C(C(F)(F)F)NC2(O)c3ccccc3C(=O)C12O (stereo unspecified),–,"inconclusive: 7.94 µM [inhibitor, full curve, poor fit]"
COC(=O)C1=C(C)N=C2SC=C(CC(=O)Nc3ccc(F)cc3)N2C1c1ccc(OC)cc1OC (stereo unspecified),–,"inconclusive: 12.6 µM [inhibitor, partial curve, poor fit]"
Cc1nc(CCNC(=O)C2CNCCO2)sc1C (stereo unspecified),–,"inconclusive: 28.2 µM [inhibitor, partial curve, poor fit]"
COc1cc2c(C(=O)N3CCN(c4cccc(C)c4)C(C)C3)cn(CC(C)C)c(=O)c2cc1OC (stereo unspecified),–,"inconclusive: 25.1 µM [inhibitor, single point]"
COC(=O)c1sc(N2C(=O)C(O)=C(C(=O)c3ccc(C)o3)C2c2ccco2)nc1C (stereo unspecified),–,"inconclusive: 22.4 µM [inhibitor, partial curve, poor fit]"

SMILES,"activity change, negative = inhibition",Potency
COc1ccc(Cl)cc1NC(=O)c1cc(S(=O)(=O)N2CCc3ccccc32)cn1C,–,"inconclusive: 28.2 µM [inhibitor, partial curve, poor fit]"
Cc1ccc(OCc2ccc(-c3nc(C#N)c(N4CCC(C(N)=O)CC4)o3)o2)cc1C,inactive: -16.5%,–
O=c1cc(N/N=C/c2ccccc2)[nH]c(=O)[nH]1,–,"inconclusive: 12.6 µM [inhibitor, partial curve, poor fit]"
Cc1ccc2c(=O)cc(C(=O)N3CCN(C(c4ccccc4)c4ccccc4)CC3)oc2c1,inactive: -11.1%,–
CNC(=O)c1cccc(-c2cnc(Nc3ccncc3)c3c2CCO3)c1,inactive: -31.3% [at 86.2 µM],–
COn1c(=O)c(C)[n+]([O-])c2ccccc21,–,"inconclusive: 39.8 µM [inhibitor, single point]"
O=S(=O)(Nc1nc2ccccc2nc1NCc1ccccc1)c1ccc(F)cc1,–,"inconclusive: 1.78 µM [inhibitor, partial curve, poor fit]"
CC(C)c1ccc(C2=CC(c3cccc(Cl)c3)n3ncnc3N2)cc1 (stereo unspecified),–,"inconclusive: 28.2 µM [inhibitor, partial curve, poor fit]"
COc1ccc(NC(C)=O)cc1NC(=O)CNC(c1ccc(F)cc1)c1cccs1 (stereo unspecified),inactive: -20.8%,–
COc1ccc(NC(=O)CCc2ccc3c(c2)CN(C(=O)NC(C)C)CCO3)cn1,–,"inconclusive: 14.1 µM [inhibitor, partial curve]"
CCOc1ccc(NC(=O)Cn2c(CCC(=O)O)ccc2-c2ccc(Cl)cc2)cc1,–,"inconclusive: 35.5 µM [inhibitor, single point]"
O=C(CC1SC(=O)N(c2ccccc2)C1=O)Nc1ccc(Cl)cc1 (stereo unspecified),–,"inconclusive: 25.1 µM [inhibitor, partial curve, poor fit]"
Cc1oc(-c2nc(C#N)c(N(C)CCC#N)o2)cc1S(=O)(=O)N(C)C,–,"inconclusive: 22.4 µM [inhibitor, partial curve, poor fit]"
C=CCNC(=O)C1CC(=O)N(c2ccc(OCC(=O)Nc3c(C)cccc3C)cc2)C1 (stereo unspecified),–,"inconclusive: 31.6 µM [inhibitor, partial curve, poor fit]"
Cc1oc(-c2nc(C#N)c(NCc3cccnc3)o2)cc1S(=O)(=O)N(C)C,–,"inconclusive: 22.4 µM [inhibitor, partial curve, poor fit]"
O=C(Nc1ccc2oc(-c3cccnc3)nc2c1)c1ccc(-c2cccc(OC(F)(F)F)c2)o1,–,"inconclusive: 35.5 µM [inhibitor, partial curve, poor fit]"
O=C(NCCc1ccc(Cl)cc1)c1ccc2c(c1)N(Cc1ccccc1)CCS2,–,"inconclusive: 25.1 µM [inhibitor, partial curve, poor fit]"
Cc1cc(NC(=O)C(C)Oc2ccc3ccc(=O)oc3c2)no1 (stereo unspecified),–,"inconclusive: 25.1 µM [inhibitor, partial curve, poor fit]"
COc1ccc(CN2C[C@H](O)C[C@H]2c2nc(-c3ccc(F)cc3)no2)c(OC)c1OC,–,"inconclusive: 25.1 µM [inhibitor, partial curve, poor fit]"
Oc1ccccc1/C=N/n1c(-c2ccccc2)n[nH]c1=S,–,"inconclusive: 14.1 µM [inhibitor, partial curve, poor fit]"
O=C(N/N=C/c1[nH]c2ccccc2c1Cl)c1cccc(Br)c1,inactive: -26.3%,–
COc1ccc(C(C)=O)cc1COC(=O)c1cccc(Br)c1,inactive: 6.69%,–

SMILES,"activity change, negative = inhibition",Potency
Cc1ccc(C)c(NC(=O)CCc2c(C)n(C)c3cc(-c4ccccc4C)nn3c2=O)c1,–,"inconclusive: 7.94 µM [inhibitor, partial curve, poor fit]"
CCc1ccccc1N(CC)C(=O)Cn1nc(Cc2cccnc2)c2ccccc2c1=O,inactive: 4.89%,–
O=C(CCc1nc2ccccc2oc1=O)OCc1cccc(C(F)(F)F)c1,–,"inconclusive: 31.6 µM [inhibitor, single point]"
Nc1nccnc1C(=O)NCCNC(=O)c1ccccc1,–,"inconclusive: 28.2 µM [inhibitor, partial curve, poor fit]"
CC1CCCC/C1=N\NC(=S)Nc1ccccc1C(F)(F)F (stereo unspecified),–,"inconclusive: 35.5 µM [inhibitor, partial curve, poor fit]"
O=C(c1ccccc1Cl)N1CCCC(c2nn(-c3ccccc3)c(=O)[nH]2)C1 (stereo unspecified),inactive: -6.16%,–
COCCCn1c(C)cnc1C1CCN(C(=O)NCC(=O)OC)C1 (stereo unspecified),inactive: -4.79%,–
COc1ccc(NC(=O)[C@@H]2C[C@@H](c3ccc(F)cc3)N([S+](=O)([O-])c3ccccc3)C2)cc1,inactive: 8.29%,–
Cc1ccc(-c2nc(Cn3nnc(-c4cccc(F)c4)n3)cs2)cc1,–,"inconclusive: 39.8 µM [inhibitor, single point]"
CC(=O)Nc1ccc(CN2CCC3(CC(c4cccc(C(F)(F)F)c4)=NO3)C2)cc1 (stereo unspecified),–,"inconclusive: 56.2 µM [inhibitor, partial curve, poor fit]"
O=C1/C(=C/c2cnc(-c3ccccc3)nc2)CS(=O)(=O)c2ccccc21,–,"inconclusive: 2 µM [inhibitor, full curve, poor fit]"
CCCCCN(Cc1ccc(F)cc1)C(=O)Nc1ccc(N(C)C)nc1,–,"inconclusive: 22.4 µM [inhibitor, partial curve, poor fit]"
COc1ccc(C(=O)N2CCC[C@H]2c2nc(-c3ccc(OC)c(OC)c3)no2)c(C)c1,–,active: 28.2 µM
CNC(=O)c1ccc2c(c1)OCC(=O)N2,inactive: 17.8%,–
CCCN1CCN(c2ncnc3sc(C(=O)Nc4ccc(N(CC)CC)cc4C)c(C)c23)CC1,inconclusive: -36.2% [inhibitor],–
COc1ccc(C)cc1NC(=O)Cn1ccn2nc(-c3ccc(F)cc3)c(CO)c2c1=O,–,"inconclusive: 28.2 µM [inhibitor, single point]"
O=C(CSCc1cnn(-c2ccccc2)c1-n1cccc1)NCc1ccccc1F,inconclusive: -34.9% [inhibitor],–
COc1ccc(C(=O)NC2CCN(c3nc4ncccc4o3)CC2)cc1,–,active: 22.4 µM
COCC1CN(Cc2sccc2C)CC12CCNCC2 (stereo unspecified),inactive: -30.7%,–
CCCCOc1ccc(S(=O)(=O)n2nc(C)c(S(=O)(=O)N3CCC(C)CC3)c2C)cc1,–,"inconclusive: 35.5 µM [inhibitor, single point]"
CCCOC(=O)C(C)n1nnc2sc(-c3ccccc3)cc2c1=O (stereo unspecified),–,"inconclusive: 31.6 µM [inhibitor, partial curve, poor fit]"
COc1ccc(-c2ccnc3nc(-c4cccs4)nn23)c(F)c1,–,active: 14.1 µM
